# From paper PMC4336329 (PLoS ONE, 2015)
# Out of some 310,000 compounds screened, about 2,200 (0.71%) showed an effect of 50% or more. Effects have a minus sign here. The list shows a part of the results.
# Molecular target: human ether-à-go-go-related gene (hERG) potassium channel (human, UniProt Q12809)
# Experiment: primary screen, population patch clamp on CHO cells stably expressing hERG
# Sequence of human ether-à-go-go-related gene (hERG) potassium channel (Q12809 whole entry, looked up): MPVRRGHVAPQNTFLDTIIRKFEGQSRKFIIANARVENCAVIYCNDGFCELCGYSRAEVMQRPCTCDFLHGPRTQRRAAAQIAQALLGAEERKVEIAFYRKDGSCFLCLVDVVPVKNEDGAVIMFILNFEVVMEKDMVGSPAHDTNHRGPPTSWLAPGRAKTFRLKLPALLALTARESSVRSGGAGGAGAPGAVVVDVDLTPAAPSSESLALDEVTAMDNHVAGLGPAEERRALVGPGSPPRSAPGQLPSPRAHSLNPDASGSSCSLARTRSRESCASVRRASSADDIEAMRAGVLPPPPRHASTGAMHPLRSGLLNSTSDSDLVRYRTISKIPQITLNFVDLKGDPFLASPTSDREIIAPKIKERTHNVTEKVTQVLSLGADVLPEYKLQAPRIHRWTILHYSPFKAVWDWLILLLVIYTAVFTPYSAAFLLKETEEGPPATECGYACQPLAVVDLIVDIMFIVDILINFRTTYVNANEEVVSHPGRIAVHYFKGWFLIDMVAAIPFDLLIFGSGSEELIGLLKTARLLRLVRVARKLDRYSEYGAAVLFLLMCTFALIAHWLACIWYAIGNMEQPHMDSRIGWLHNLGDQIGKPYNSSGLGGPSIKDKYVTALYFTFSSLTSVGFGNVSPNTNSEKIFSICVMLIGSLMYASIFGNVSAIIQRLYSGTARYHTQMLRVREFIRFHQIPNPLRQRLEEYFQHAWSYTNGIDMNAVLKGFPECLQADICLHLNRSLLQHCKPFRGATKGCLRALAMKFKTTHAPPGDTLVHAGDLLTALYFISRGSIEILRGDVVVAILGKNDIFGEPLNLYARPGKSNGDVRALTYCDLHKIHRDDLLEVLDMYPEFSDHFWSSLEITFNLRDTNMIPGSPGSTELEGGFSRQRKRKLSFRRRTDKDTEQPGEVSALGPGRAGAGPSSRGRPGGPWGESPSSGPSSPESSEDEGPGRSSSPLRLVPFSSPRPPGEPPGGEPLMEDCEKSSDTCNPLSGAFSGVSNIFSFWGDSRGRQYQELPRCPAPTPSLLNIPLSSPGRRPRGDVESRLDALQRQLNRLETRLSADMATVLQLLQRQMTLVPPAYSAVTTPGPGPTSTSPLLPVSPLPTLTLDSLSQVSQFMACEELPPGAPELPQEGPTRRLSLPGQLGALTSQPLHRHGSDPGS
row,Structure (SMILES),"hERG current change (%, negative = inhibition) at 1uM"
1,CC(=O)Nc1cccc(NC(=O)Nc2cccc(Cl)c2C)c1,17.5%
2,COc1cc(OC)c2c(-c3ccccc3)cc(=O)oc2c1C(CC(=O)N1CCOCC1)c1ccc(N(C)C)cc1 (centres unmarked),10.7%
3,CC(=O)N(CN1C(=O)c2ccccc2C1=O)c1ccccc1,10.1%
4,COc1ccc(-n2nnnc2SCC(=O)N2CCCC2)cc1OC,12.3%
5,Cc1nnc2ccc(N3CCCCC3)nn12,11%
6,O=C(O)c1ccccc1C(=O)NCC(O)COc1ccc(Cl)cc1 (centres unmarked),12.4%
7,Cc1nc2sccn2c(=O)c1CCN1CCC(=C(c2ccc(F)cc2)c2ccc(F)cc2)CC1,-65%
8,Cc1ccc2nc(-c3sc4nc(C)ccc4c3N)[nH]c2c1,16.2%
9,COc1ccc2c(c1)c(CCNNC(=O)C(C)(C)C)c(C)n2C(=O)c1ccc(Cl)cc1,4.7%
10,CCC(=O)N/N=C(\C)CC(=O)Nc1ccc(Cl)cc1,8.49%
11,CC(=O)c1cccc(NC(=O)C2CCCCC2)c1,10.2%
12,Cc1noc(/C=C/c2ccco2)c1S(=O)(=O)N1CCC(C(=O)NC(C)c2ccccc2)CC1 (centres unmarked),13.9%
13,CCc1cc2c(=O)c(-c3ccc4c(c3)OCCO4)coc2cc1OS(C)(=O)=O,14.3%
14,O=C(Cn1c(=O)oc2ccccc21)Nc1nc(-c2ccccc2)cs1,13.1%
15,CC(C)C(=O)NCc1cc(-c2ccccc2)no1,12.8%
16,CN(C)CCCNCCCNC(=O)c1ccccn1,-3.37%
17,CCC(=O)Nc1ccc2c(c1)nc1n2CCSC1,9.43%
18,C/C(=N\NC(=O)C1CC1)c1ccc(N2CCOCC2)cc1,8.17%
19,Cc1ccc(Cn2ccc(NC(=O)c3c(-c4ccccc4Cl)noc3C)n2)cc1,3.45%
20,CCOc1ccc(C(=O)NCCCN(CC)CC)cc1,-18.8%
21,COc1ccc(NC(=O)c2cccc(S(=O)(=O)NCc3ccccc3)c2)cc1S(N)(=O)=O,-1.47%
22,COc1ccc(-c2nnnn2C)cc1S(=O)(=O)Nc1ccc(C)cc1C,6.72%

row,Structure (SMILES),"hERG current change (%, negative = inhibition) at 1uM"
1,CC1(C(=O)NC2CCCCCCC2)CCC(=O)N1Cc1cccs1 (centres unmarked),-8.46%
2,C=CCOc1ccc(C2c3c(oc4ccccc4c3=O)C(=O)N2CCCN2CCOCC2)cc1 (centres unmarked),-6.32%
3,CCOP(=O)(OCC)C(NC(=O)C(C)C)C(Cl)(Cl)Cl (centres unmarked),4.89%
4,COc1ccc(CNC(=O)COC(=O)c2ccc(Br)o2)cc1,12.6%
5,COc1ccc(S(=O)(=O)Nc2ccccc2-c2nc3ccccc3[nH]c2=O)cc1,7.5%
6,COc1ccc(CNC(=O)CCn2c(=O)c3cccn3c3ccc(F)cc32)cc1,0.0738%
7,Oc1ccc(NC(=S)Nc2ccccc2)cc1,14.5%
8,CCOc1ncccc1C(=O)OCC(=O)N1c2ccccc2CC1C (centres unmarked),-4.59%
9,COc1ccc(C(=O)NC(Nc2ccc(C)cc2)C(Cl)(Cl)Cl)cc1 (centres unmarked),8.56%
10,O=C(CN1CCN(Cc2ccccc2)CC1)Nc1ccc(Br)cc1,-48.3%
11,COC(=O)Cc1csc(/N=C/c2c(O)n(-c3cccc(C(F)(F)F)c3)c(=O)c3ccccc23)n1,14.8%
12,Cc1cccc(C)c1NC(=O)C1(NC(=O)Cn2cccc([N+](=O)[O-])c2=O)CCCCC1,13.5%
13,CCOc1ccccc1OCCC(=O)NNC(=O)Cn1nc(C)cc1C,1.53%
14,Cc1ccnc(N2CCC(C(=O)Nc3cccc(C(F)(F)F)c3)CC2)n1,5.54%
15,Cl.O=S(=O)(CCc1ccncc1)c1ccc(Cl)cc1,6.95%
16,COc1ccc(C)cc1NC(=O)CO/N=C(\N)CC(=O)NC1CCCCC1,3.39%
17,CSCCC(NC(=O)c1ccc(Cl)cc1Cl)C(=O)NCc1ccccn1 (centres unmarked),5.25%
18,CCNC(=O)/C=C/c1ccccc1[N+](=O)[O-],11.2%
19,c1cncc(-c2noc(C34CC5CC(CC(C5)C3)C4)n2)c1,13.4%
20,COC(=O)c1cccc(S(=O)(=O)N2CCC(NC(=O)NC34CC5CC(CC(C5)C3)C4)CC2)c1,12.6%
21,CCN(CC)c1ccc(C(=O)NNC(=O)CNC(=O)c2cccs2)cc1,4.97%
22,O=C(COc1ccc(Br)cc1)NCC1COc2ccccc2O1 (centres unmarked),8.57%
